The list shows a part of the results.
T1: UNK ZnF1-3 (human, UniProt Q9C0B0 31-174)
T1 sequence: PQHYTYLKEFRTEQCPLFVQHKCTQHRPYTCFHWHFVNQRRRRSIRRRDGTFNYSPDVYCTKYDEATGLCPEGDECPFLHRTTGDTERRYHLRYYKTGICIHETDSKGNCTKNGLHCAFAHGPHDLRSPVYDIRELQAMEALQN

B1: chr7:30948173:30948174:-_ENSMUSG00000037029_ENSMUST00000062181|mus_hu|FALSE|FALSE (ssRNA)
RNA: GGGAGUUCUACAGUCCGACGAUCCCCAACUAAGUCCCUUGAUGAUUCUUUCCUACACAACCUCCCUCAUGAUUUCAGUCCAGGUUGUGUUUCAAACUGAAAACUUCAAAAAGGUGUGGCCUUAAAACAAAUACGAUCUGAGAACAACAGAGGAUUGAGCAUCA
B2: chrX:98862621:98862622:+_ENSMUSG00000034160_ENSMUST00000044475|mus_hu|mus_mus_mus_hu_False|8_58 (ssRNA)
RNA: GGGAGUUCUACAGUCCGACGAUCCUGCAUCUCCUUUAGAGUGUUUCCCAUAUUAGAGUAGGCAUCAGCAAAGGUAGGACUAAUUCGAAUAGCCUCCUUAUAAUGCAUCAGAGCUUCCUGCAGUUUUCCCUGCUGUUGCAGUACCAACAGAGGAUUGAGCAUCA
B3: chr13:97419678:97419679:-_ENSMUSG00000021670_ENSMUST00000022176|mus_hu|FALSE|FALSE (ssRNA)
RNA: GGGAGUUCUACAGUCCGACGAUCUUUUAUUACAACAUAUACAGAUUUGAUACAGUUUACAAAAAAAACUAGAUUUUUCAACUAAAUAAAAAUGUCUUUUAAGCAAUUAAAGUUGGCUUAGAGACAUGGUAUUUUUCUUUCAAACAACAGAGGAUUGAGCAUCA
B4: chr1:39494564:39494565:+_ENSG00000168653_ENST00000372967|hu_hu|hu_hu_hu_mus_True|78_78 (ssRNA)
RNA: GGGAGUUCUACAGUCCGACGAUCAUGCAUUCGCCUCAUCGUUUUGUACCGAAGCAAACACUCUACGAAGUCAUCGAACUCUAUCUUGCACUCCUUUUUCGCCCGGGUCCCACCGAUCCCGUGUGCACACUCUAUCCACUCUUUCAACAGAGGAUUGAGCAUCA
B5: chr14:103931940:103931941:+_ENSG00000075413_ENST00000216288|hu_hu|FALSE|FALSE (ssRNA)
RNA: GGGAGUUCUACAGUCCGACGAUCACAAAACGUGUCGAGUUUACCGCCAACAGUAAAUUCAUUGCUAAAACCGAAAUCUGCUAUUUUAAUGUUCAUAUCGGCAUCUAACAAUAGAUUUUCAGCCUUGAGGUCUCGAUGUACGAUCAACAGAGGAUUGAGCAUCA
B6: chr10:5788261:5788262:+_ENSG00000108021_ENST00000328090|hu_hu|motif|central (ssRNA)
RNA: GGGAGUUCUACAGUCCGACGAUCGUAAGUCCUGGUGAAUGUGGCUUGAGUAACAGUGCCACUGUAAGAAGCCACUCUUGUGCGGUCCAGUGGCUGAACAAUUUCUUCUUCACUAGGAACAGAAGGUCCAUUAGUUUGUGUACUCAACAGAGGAUUGAGCAUCA
B7: chr5:143849297:143849298:-_ENSMUSG00000045078_ENSMUST00000053498|mus_mus|motif|central (ssRNA)
RNA: GGGAGUUCUACAGUCCGACGAUCUACAUUCAAAUCAUAGUAAUUUUUCAAAUGAAUUAUUUCUUCAACAUAUCCACUUGCGGCAUCUGGAAAUCUUGCUUCCGUUUCUUUCACUAACAGUGGAAUGAGGUCUUGAUCUACCUCCAACAGAGGAUUGAGCAUCA
B8: chr12:84935825:84935826:-_ENSMUSG00000042628_ENSMUST00000048319|mus_mus|FALSE|FALSE (ssRNA)
RNA: GGGAGUUCUACAGUCCGACGAUCUCCCACUGCAUGCAUAACUCUCCUGGCACAUGAGCCCCGGAUUUAGGCCCUUCUCUGCUAGGGAAGUCUGGGCACUCAUAACUUAGACUCGUUUGGAAACCACCCACCCUGCAACAGUCACAACAGAGGAUUGAGCAUCA
B9: chr11:77340908:77340909:-_ENSG00000074201_ENST00000525064|hu_hu|hu_hu_hu_mus_True|48_48 (ssRNA)
RNA: GGGAGUUCUACAGUCCGACGAUCGUUUGGAUCCCUGGACACCGCAUGUAAACUAAUGGUGGGGUAUUCCAGUGAGAAUCCUAAUCCAGAGCCAUCUAACCAGGACAGGCGGCUCUCCGCGAUGUAAAGCGUGCCGGUGCCGAGCAACAGAGGAUUGAGCAUCA
B10: chr10:33214929:33214930:-_ENSG00000150093_ENST00000302278|hu_hu|hu_hu_hu_mus_True|8_88 (ssRNA)
RNA: GGGAGUUCUACAGUCCGACGAUCAACAAGUUCAUUGAAAAACUCUCCUUUAUUAGUAAGACUAAGCACAUUUUUGUAGCUAAAUGGGCUGGUGCAGUUUUGUUCACUUGUACAAGGAUUUCUUAGCUUAGCUGGUGUUGUGCUCAACAGAGGAUUGAGCAUCA
B11: chr12:105536279:105536280:+_ENSG00000136051_ENST00000332180|hu_mus|hu_hu_hu_mus_True|48_78 (ssRNA)
RNA: GGGAGUUCUACAGUCCGACGAUCAGCACUGAACAUGUAAUGUAAUCUGGCUGCAUCAACAGCAUUUUCAUAUACAUCAUCUAAAUAAAUUGGGAAGACAGCGCGAUGCCAGUAUAAAAAACAGCAGUCACACUGUGCUUGGACCAACAGAGGAUUGAGCAUCA
B12: chr8:92086081:92086082:+_ENSG00000155100_ENST00000285420|hu_mus|FALSE|FALSE (ssRNA)
RNA: GGGAGUUCUACAGUCCGACGAUCAAUCCGAGGUGGUUGAUUCUCAAGUACCAAGUUUGAAAUGUUAACAGCAACAGAAUCUAUCUUACUGUCCUUGAAAGUCAAUUGCUUCAAUUGCUCCAGUUCUUCCCUGUGUUUUUGCUCCAACAGAGGAUUGAGCAUCA
B13: chr11:18503389:18503390:-_ENSG00000074319_ENST00000251968|hu_hu|hu_hu_hu_mus_True|18_48 (ssRNA)
RNA: GGGAGUUCUACAGUCCGACGAUCAUUUUCCAUUUUCUCCAGAGCAGAACUUAGUUCUUCAUCCUUCUUUUUCAAAAGUUCUAUGUUUUUAUCAACCUCAGCUACUUCUUGAUCUAAACGGGUAACCAUCUCUUCCAGUUUCUGCAACAGAGGAUUGAGCAUCA
B14: 100888057_100888680_723_3pUTR_ENSMUSG00000019302_ENSMUST00000044721|mouse|control|control (ssRNA)
RNA: GGGAGUUCUACAGUCCGACGAUCGAUUUCAGCUUGUCUCAGGAACACAUUCCCUCGGCACACUCGCCAAAGCAUGCGCUCAAAGGUCGGGAUCCGCUCCCGGUUAAUCACACCAGCCACAAAGCCAAGUCGUAAGGGUGCGCCCAACAGAGGAUUGAGCAUCA
B15: chr5:128448638:128448639:+_ENSG00000066583_ENST00000173527|hu_mus|hu_hu_hu_mus_False|28_58 (ssRNA)
RNA: GGGAGUUCUACAGUCCGACGAUCGGCACUCGCCUUAAUUAGGUUCUGAAUUUCCUUGAACUUCGGGUGGUCUUUGUCAGCUACCAGCUGUAGGAGGACAGCCUCACUCGUGGUCACGAUGAUCCCAGUGCGGGCAAGACGCUCCAACAGAGGAUUGAGCAUCA
B16: chr7:148047826:148047827:+_ENSMUSG00000025485_ENSMUST00000026558|mus_mus|FALSE|FALSE (ssRNA)
RNA: GGGAGUUCUACAGUCCGACGAUCCCCCAUGGGUUGGAUGACUCUGUGCCUGGAGAGCUUGUCAAACAUGUUCACUAGCUUCAUGGCCUCAUGUUCCUUCUGCUCCUCUGUCAUGCCUUCCAUAGGAUUAGGCGGCUUCUCCUCCAACAGAGGAUUGAGCAUCA
B17: chr1:29344824:29344825:+_ENSG00000159023_ENST00000356093|hu_mus|FALSE|FALSE (ssRNA)
RNA: GGGAGUUCUACAGUCCGACGAUCCAUGCCGUGCAGUUCUGGGUCAUAGUCUCCCAGCUCAGACUGGAUCGUGUAAGACCCGAGUAGGGCUAAAGUUGCAAAGGAACAGGGCAGACGUCCAGCAACAAUGUCCUGCCGAAGCUGCAACAGAGGAUUGAGCAUCA
B18: chr4:11166509:11166510:-_ENSMUSG00000040738_ENSMUST00000108319|mus_hu|motif|central (ssRNA)
RNA: GGGAGUUCUACAGUCCGACGAUCGUUGAGAUGUACUAUCAGAAGAAGGUACAAGAACAUCACAUGCUUGACAAUAGCCAGCGGACCGCUUCUCAUCUAUGGUACAAUGAAGAGAUAAUGAACCUAUCUCUGCAAUUAGUUCUUCAACAGAGGAUUGAGCAUCA
B19: chr15:81824118:81824119:-_ENSMUSG00000022472_ENSMUST00000152227|mus_mus|FALSE|FALSE (ssRNA)
RNA: GGGAGUUCUACAGUCCGACGAUCGAAGGGAACCUUAAGGUCCCUCUGGAAUCUGGAGUCUAGAUCAUAGACUUCUAGGCUAUUGCUGCCCAUGAAAUCCUAGCAGCAUAUCAUUAAGAAAACGCCCACUCACACCCCAACCACCAACAGAGGAUUGAGCAUCA
B20: chr8:104447970:104447971:+_ENSG00000164934_ENST00000297579|hu_hu|hu_hu_hu_mus_False|1_78 (ssRNA)
RNA: GGGAGUUCUACAGUCCGACGAUCAUACACUUCCCUGCUUCGGCUCUUGUCCACAGGAAAGAUUCGAAUAGACUUAUCAAAGCUGGCAGACACAAAUUCCUUCCCAGUGGGAGAGUAGUCCACAUCAAGUACUGCAGAUACAUGCAACAGAGGAUUGAGCAUCA
B21: chr14:55515796:55515797:+_ENSMUSG00000022194_ENSMUST00000116476|mus_mus|motif|central (ssRNA)
RNA: GGGAGUUCUACAGUCCGACGAUCGAACAGGGACUCAUCUAAGGCCAGGGACGUCCUCACUGACUCUUUGUCCGAGAACUCGGUAUAUGCAAACCCUUUGGGAUGGCCACUAAAUUUGUCACAGAGUAUAGUAACACGGUUGACCAACAGAGGAUUGAGCAUCA
B22: 55621432_55625267_2122_CDS_ENSG00000126787_ENST00000247191|human|control|control (ssRNA)
RNA: GGGAGUUCUACAGUCCGACGAUCGCCCAUCUCAUUUCUACUCUGAGAUACAGCUUUGUUGACAGACUUAGGUGUUCCAAGUCUUUGAGAAGGGCCUUCAGAAGAGACAGAAAGUCCUGAGAAUAAUUUAACAGGACUUUCAACCAACAGAGGAUUGAGCAUCA

molecular target: T1, UNK ZnF1-3; assay: nsRBNS (natural sequence RNA bind-n-seq); RBNS binding buffer (assumed for nsRBNS): 25 mM Tris pH 7.5, 150 mM KCl, 3 mM MgCl2, 0.01% Triton X-100, 500 ug/ml BSA, 20 U/ml SUPERase-In, 4 C; UNK is unkempt and MSI1 is Musashi-1; names of the RNAs are library labels; protein concentration not given here; high values mean tight binding

Row | Binder | binding signal
1 | B1 | 0.883 enrichment R
2 | B2 | 0.958 enrichment R
3 | B3 | 0.964 enrichment R
4 | B4 | 0.73 enrichment R
5 | B5 | 0.552 enrichment R
6 | B6 | 0.711 enrichment R
7 | B7 | 0.594 enrichment R
8 | B8 | 1.07 enrichment R
9 | B9 | 0.885 enrichment R
10 | B10 | 0.765 enrichment R
11 | B11 | 2.74 enrichment R
12 | B12 | 1.05 enrichment R
13 | B13 | 0.546 enrichment R
14 | B14 | 0.818 enrichment R
15 | B15 | 0.991 enrichment R
16 | B16 | 0.718 enrichment R
17 | B17 | 0.677 enrichment R
18 | B18 | 1.27 enrichment R
19 | B19 | 0.917 enrichment R
20 | B20 | 0.906 enrichment R
21 | B21 | 1.56 enrichment R
22 | B22 | 0.488 enrichment R
